# Laboratory results taken from PubChem BioAssay AID1508623 (National Center for Advancing Translational Sciences (NCATS), 2021).
# Out of some 48,000 compounds screened, about 450 (0.94%) were called active. Not shown: some 19% with an inconclusive outcome. Calls come from the whole dose curve; as a rule, active = well fitted inhibition curve with a large enough effect; inconclusive = small, poorly fitted or top-dose-only effect; inactive = no such curve, though single readings can be large or run the other way. Some of the results follow.
# Assay: Primary qHTS for Identification of Small Molecule Inhibitors of Huntingtin Promoter Activity; note: nearly all actives have a fitted effect of over 50% in size
# Settings: HEK293 HTT promoter firefly luciferase reporter (activity 0% = vehicle and -100% = no light), 24 h; series mostly up to 57.5 µM; activity change, negative = inhibition: at the top concentration
# How it was run: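 HEK293 luciferase promoter-reporter cells (2,500/well) plated 24 h, then compounds added at up to 57.5 uM final for 24 h at 37 °C. Firefly luminescence by Dual-Glo, normalized to vehicle (0%) and zero RLU (-100%).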
row,SMILES,"activity change, negative = inhibition"
1,Cc1cccc(CCNC(=O)c2cc(S(=O)(=O)N3CCCCC3)c[nH]2)c1,inactive: -13.8%
2,C/C=C/c1ccc(OC)cc1,inactive: -0.836%
3,Cc1cccc(N2CCN(C(=O)c3ccc4c(c3)N(Cc3ccccc3)C(=O)c3ccccc3S4(=O)=O)CC2C)c1 (stereo unspecified),inactive: -27.9%
4,Cc1ccc(C)c(NC(c2ccccc2)c2nnc(-c3ccccc3F)o2)c1 (stereo unspecified),inactive: 22.1%
5,Clc1ccc(CCNc2nc3cc(Cl)c(Cl)cc3n3cnnc23)cc1,inactive: -0.573%
6,COc1ccc(CCN2C(=O)N(c3cccc(C)c3)C(=O)C2CC(=O)Nc2ccccc2)cc1OC (stereo unspecified),inactive: -27.8%
7,COc1cc(-c2nc(SCC(=O)Nc3ccc4c(c3)OCO4)c(-c3ccccc3)[nH]2)cc(OC)c1OC,inactive: -14.5%
8,COc1ccc(-c2nnc(SCC(=O)N3CCC(C)CC3)o2)cc1,inactive: -3.37%
9,COc1ccccc1CNC(=O)CSc1ncc(S(=O)(=O)c2ccc(C)c(Cl)c2)c(=O)[nH]1,inactive: -14.6%
10,CNC(=O)C1CCC(Cn2c(=O)c3sccc3n(CC(=O)N3CCCC(C)C3)c2=O)CC1 (stereo unspecified),inactive: -6.03%
11,CCCN(CCC)CCc1cccc2c1CC(=O)N2,inactive: 9.49%
12,COCCCNC(=O)C1CCN(Cc2cc3ccccc3n2Cc2cccc(C)c2)CC1,inactive: -13.3%
13,CCCCOC(=O)c1c(C)oc2c1cc(NS(=O)(=O)c1cc(OC)ccc1OC)c1ccccc12,inactive: -35.6%
14,COc1ccc(-c2c(C)c3ccc(O)c(CN4CCOCC4)c3oc2=O)cc1OC,inactive: -22.2%
15,CCCN1Cc2cccc(C(=O)Nc3cc(Cl)ccc3C)c2C1=O,inactive: 0.0464%
16,Cc1cc(C)c2c(c1)c(C)cc1nnc(SCC(=O)c3ccccc3)n12,inactive: -2.57%
17,O=C(CSc1nccn1Cc1ccc(F)cc1)NCc1ccco1,inactive: -9.73%
18,CC(C)(C)c1ccc(C(=O)Nc2ccc(-c3nc4ccccc4o3)c(O)c2)cc1,inactive: -16.4%
19,O=C(CN1C(=O)c2ccccc2Sc2ccc(C(=O)N3CCOCC3)cc21)Nc1ccc(Cl)cc1F,inactive: -2.57%
20,Cc1cccc(NC(=O)c2sc3ncnc(N(C)C4CCCCC4)c3c2C)c1C,inactive: 0.862%
21,CCN(CC)c1ccc2cc(-c3nc4sc5c(c4c(=O)[nH]3)CCC(C(C)(C)C)C5)c(=O)oc2c1 (stereo unspecified),inactive: -20.8%
22,COc1cccc(NC(=O)c2c(C)oc3nc(C)nc(N4CCCC4)c23)c1,inactive: -0.636%
23,CCC(=O)N1CCc2cc(S(=O)(=O)CCC(=O)N3CCN(c4cccc(C)c4C)CC3)ccc21,inactive: -2%
24,COc1ccc(CC(=O)Nc2nc3c(s2)CCCC3)cc1,inactive: -25.8%

row,SMILES,"activity change, negative = inhibition"
1,Cc1ccc2c(c1)N(C(=O)CCC(=O)NCc1cccc(F)c1)CC(C)O2 (stereo unspecified),inactive: -30.6%
2,Cc1cccc(C)c1NC(=O)c1cc(S(=O)(=O)N2CCc3ccccc3C2)ccc1F,inactive: -16.7%
3,CCOc1ccc(-c2cc3c(=O)n(CC(=O)NCc4ccc(F)cc4)ccn3n2)cc1,inactive: 70.2%
4,CCOC(=O)c1cccc(NC(=O)CCS(=O)(=O)c2ccc3c(c2)CCN3C(=O)CC)c1,inactive: -4.64%
5,COc1cccc2cc(-c3nc(-c4ccc(Cl)cc4)cs3)c(=O)oc12,inactive: -4.01%
6,COC(=O)C[C@](O)(CCCC(C)(C)O)C(=O)O[C@@H]1C(OC)=C[C@]23CCCN2CCc2cc4c(cc2[C@H]13)OCO4,inactive: 24.8%
7,CCn1c(=O)c2sccc2n2c(CCCC(=O)N3CCN(c4ccc(F)cc4)CC3)nnc12,inactive: -17.3%
8,CCCCOc1ccc(C(=O)N(Cc2ccccc2)C2CCS(=O)(=O)C2)cc1 (stereo unspecified),inactive: -25.9%
9,COC(=O)c1ccc(NC(=O)C(=O)NCCc2csc(-c3ccc(F)cc3)n2)cc1,inactive: -20.1%
10,Cc1ccc(O)c(NC(=O)C2=CC(c3ccco3)=NS(=O)(=O)N2C)c1,inactive: -20.4%
11,O=C(CSc1ncccc1C(=O)Oc1ccccc1Cl)Nc1ccc(C(F)(F)F)cc1Cl,inactive: 18.6%
12,COc1ccc(N2CCN(Cc3nc4c(c(=O)[nH]c(=O)n4C)n3Cc3ccccc3C)CC2)cc1,inactive: 1.68%
13,Cc1csc2nc(COC(=O)CNC(=O)c3ccccc3)cc(=O)n12,inactive: -25.5%
14,Cc1ccc(CN(C(=O)COc2ccccc2[N+](=O)[O-])c2ccccn2)o1,inactive: 2.82%
15,O=c1oc2ccccc2cc1-c1cn2cc(Cc3cc(Cl)ccc3Cl)sc2n1,inactive: -4.62%
16,COc1ccc(NC(=O)C2CCCN(S(=O)(=O)c3ccc(F)cc3)C2)cc1 (stereo unspecified),inactive: -14.5%
17,CCN(CC)S(=O)(=O)c1ccc2c(c1)N(CC(=O)Nc1cccc(C#N)c1)C(=O)CO2,inactive: -12.7%
18,CCc1nnc(NC(=O)CSc2nc3c([nH]c4ccccc43)c(=O)n2-c2ccc(Cl)cc2)s1,inactive: -18.2%
19,FC(F)(F)c1cc(-c2ccccc2)nc2cc(-c3ccccc3)nn12,inactive: 11.6%
20,C[C@]12CC[C@@H]3c4ccc(O)cc4CC[C@H]3[C@H]1CC[C@H]2O,inactive: -5.1%
21,Cc1cc(F)ccc1NC(=O)Cn1cc(S(=O)(=O)NC(C)C)c(S(=O)(=O)NC(C)C)c1,inactive: -9.32% [at 11.5 µM]
22,CCCCSc1nc2sc3c(c2c(=O)n1-c1ccccc1C)CC(C)(C)OC3,inactive: 0.947%
23,COc1ccc(NC(=O)CNC(=O)Cn2c(C)cc3ccccc3c2=O)c(OC)c1,inactive: -9.1%
24,O=C(c1ccccc1)N1CCN(CCc2ccccn2)CC1,inactive: -20.5% [at 11.5 µM]

row,SMILES,"activity change, negative = inhibition"
1,CCOc1ccc(-n2cc(-c3ccccc3)c3c(Nc4cccc(F)c4)ncnc32)cc1,inactive: -15.1%
2,COc1cccc(C(=O)Nc2c(C(=O)Nc3ccc(F)cc3)oc3ccccc23)c1OC,inactive: 10.2%
3,CCOc1ccc(C(=O)Nc2nnc(SCc3cc(=O)n4ccccc4n3)s2)cc1,inactive: 13.1%
4,Cc1ccc(NC(=O)c2cnc(N3CCCC3)nc2C)cc1F,inactive: -17.1%
5,COc1ccc(NC2=C(c3ccc(C(F)(F)F)cc3)C(=O)c3ccccc32)cc1,inactive: 14.5%
6,COc1cccc(NC(=O)CN2C(=O)c3ccccc3Sc3ncccc32)c1,inactive: 3.37%
7,COc1ccccc1C(=O)Nc1c(C(=O)NC(C)(C)C)oc2ccccc12,inactive: -8.03%
8,CCOC(=O)c1ccc(NC(=O)c2cn3c4c(ccc(Cl)c4c2=O)OC(C)C3)cc1 (stereo unspecified),inactive: -0.501%
9,COc1ccc(S(=O)(=O)N2CCN(c3ccccc3OC)CC2)cc1,inactive: -24.8%
10,COc1cc(OC)c(N(C)C(=O)Nc2cn(CC(C)C)c(=O)c3ccccc23)cc1Cl,inactive: -20.5%
11,CCCc1nn2c(=O)cc(COC(=O)CNC(=O)COc3ccc(C)cc3)nc2s1,inactive: -6.59%
12,Cc1ccc(-c2nc(C)c(CCNC(=O)c3ccccc3Br)s2)cc1,inactive: 9.39%
13,NC(=O)c1cccc(-c2cccc(OC(=O)NC3CCCCC3)c2)c1,inactive: 4.79%
14,Cc1cccc(-n2c(=O)c3ccccc3n(Cc3ccc(F)cc3)c2=O)c1,inactive: -19.9%
15,Cc1ccc(NC(=O)/C=C/c2ccccc2Cl)cc1Cl,inactive: 25.6%
16,Cc1cc2c(cc1S(=O)(=O)Nc1cc(C(F)(F)F)cc(C(F)(F)F)c1)OCC(=O)N2,inactive: -22.4%
17,COc1ccc(NC(=O)C2=C(C)Nc3nc(SCc4ccc(Cl)cc4)nn3C2c2cccc(OC)c2OC)cc1 (stereo unspecified),inactive: -4%
18,COc1ccc(N(C)C(=O)Cn2cc(S(=O)(=O)N3CCN(c4ccccc4F)CC3)c3ccccc3c2=O)c(OC)c1,inactive: -23.1%
19,Cc1[nH]c(=O)c(C#N)cc1-c1ccc2nccn2c1,inactive
20,Cc1nc2cccnc2n1C1CCN(C(=O)Nc2ccc(Cl)cc2)CC1,inactive: 9.39%
21,COC(=O)Cc1c(C)c2ccc3c(c2oc1=O)CN(Cc1ccccc1Cl)CO3,inactive: -22.6%
22,CCCCCCCCOc1ccc(C(=O)c2ccccc2)c(O)c1,inactive: -9.7%
23,COCCNC(=O)c1ccccc1NC(=O)c1nsc2ccccc12,inactive: 12.6%
24,CNC(=O)CN1C(=O)COc2ccc(S(=O)(=O)N3CCC(C)CC3)cc21,inactive: -21.7%

row,SMILES,"activity change, negative = inhibition"
1,Cc1ccc(-n2cnnn2)cc1S(N)(=O)=O,inactive: -12.9%
2,CCc1cc2c(cc3c(=O)n(CC(=O)NCCc4ccc(OC)cc4OC)nc(CC)n32)s1,inactive: -5.61%
3,COC(=O)Cn1c(SCCOc2ccccc2OC)nc2ccccc21,inactive: -7.32%
4,Cc1cc2[nH]c(=O)c(=O)[nH]c2cc1S(=O)(=O)N1CCN(c2cccc(Cl)c2)CC1,inactive: 0.855%
5,CCSc1ncc(Cl)c(C(=O)Nc2cccc(Cl)c2)n1,inactive: -33.4%
6,CCOC(=O)C1(C)C=C(Nc2cccc(C(=O)O)c2)C(=O)N1c1ccccc1 (stereo unspecified),inactive: 19.9%
7,Cc1ccc2c(=O)cc(C(=O)Nc3c(C)n(C)n(-c4ccccc4)c3=O)oc2c1,inactive: -9.96% [at 11.5 µM]
8,COc1cc(NC(=O)CSc2nc3nc(C)c(Cc4ccccc4Cl)c(C)n3n2)cc(OC)c1,inactive: -18.9%
9,CCCOc1ccc(CNC(=O)C(NS(=O)(=O)c2cccs2)C(C)C)cc1 (stereo unspecified),inactive: -14.9%
10,COc1cc(Cl)c(C)cc1NC(=O)c1cnc(N2CCCCC2)c2ccccc12,inactive: -12.9%
11,COc1cc2nc(SCc3ccc(C)cc3)n3nc(CCn4nc(C)cc4C)nc3c2cc1OC,inactive: -5.64%
12,COC(=O)C(CCSC)Nc1ncnc2onc(-c3ccc(F)cc3)c12 (stereo unspecified),inactive: -8.89%
13,CC(C)Cn1c(-c2cccc(Br)c2)nc2ccccc21,inactive: -28.7%
14,Cc1cc(C)cc(NC(=O)C(Cc2ccccc2)NS(=O)(=O)c2ccc3c(c2)CCC(=O)N3)c1 (stereo unspecified),inactive: -15%
15,CCOc1ccccc1NC(=O)C(=O)Nc1ccc2nc3n(c(=O)c2c1)CCCCC3,inactive: -24%
16,Cc1cc(C)cc(NC(=O)Cc2noc3ccccc23)c1,inactive: 37%
17,O=C(c1ccccc1)N1c2nc(-c3ccco3)nn2C2(CCCCC2)[C@@H]2CCCC[C@@H]21,inactive: -14.1%
18,Cc1ccccc1OCc1ccc(-c2nc(C#N)c(N3CCN(c4cccc(Cl)c4)CC3)o2)o1,inactive: -7.72%
19,Cc1cc(C)c(NC(=O)C2CCCN(S(=O)(=O)c3c(C)noc3C)C2)c(C)c1 (stereo unspecified),inactive: -17.6%
20,CCCCCCOc1ccc(C2C(=O)N(C3CCCCC3)CC(=O)N2C2CCCCC2)cc1 (stereo unspecified),inactive: -11.1%
21,O=C(c1ccc2c(c1)N(Cc1ccc(F)cc1)C(=O)c1ccccc1S2(=O)=O)N1CCCCC1,inactive: -9.46%
22,Cc1ccc(-c2nn3c(C)nnc3c3ccccc23)cc1S(=O)(=O)NCC(C)O (stereo unspecified),inactive: 29.1%
23,NC(=O)c1cc(S(=O)(=O)N2CCN(c3cccc(C(F)(F)F)c3)CC2)cs1,inactive: -4.8%
24,COc1cc(NC(=O)CSc2c3c(nc4ccccc24)CCC3)cc(OC)c1OC,inactive: -25.6%
